Results taken from the supplement of paper PMC10369915.
Some of the results follow. No stated cut-off is given here; in the data, active = 3.2 or more and inactive = the rest. The signal is at background level for most entries.

biological target: SHP2 C-SH2 domain E139D; experiment: enrichment score (SH2-bound / input frequency) (ratio); bacterial display of known human phosphotyrosine sites (pTyr-Var adds point mutants) read by sequencing; higher = stronger binding; tyrosines were phosphorylated by kinases first; details: peptide library: pTyr-Var
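Further: displayed peptides selected on beads carrying the immobilized SH2 domain, with library peptides lacking any tyrosine serving as negative controls.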

Enrichment score, inactive:
AMCVCYDGVEV [ADAMTSL2_Y594_R593C] 1.2, SSQAHYRLSAF [ADAMTS9_Y100] 0.872, GIVEDYRPPFC [ACVRL1_Y421_Y426C] 0.747, RPAPQYPHQVP [ADAM12_Y895] 0.791, HKANEYYPVVI [ADAMTS18_Y764_L769I] 0.915, CSHKFYGKQCC [ADAMTS16_Y1211] 1.47, AGIKAYQSCLQ [ADGRA2_Y377_T375K] 0.714, HKANEYFPVVL [ADAMTS18_Y764_YF] 1.38, EDDPEYMRLRN [ADD2_Y31] 0.706, NTPNTYLRVNV [ADD2_Y440] 0.858, GIVEDYRPPFF [ACVRL1_Y421_YF] 0.961, HKANEYFPVVI [ADAMTS18_Y764_L769I_YF] 0.971, EDNPEYMRLRN [ADD2_Y31_D28N] 0.561, HSLHDYKEALM [ADA2_Y337] 1.1, KANEYYPVVII [ADAMTS18_Y765_L769I] 0.609, STQAHYRLSAF [ADAMTS9_Y100_S96T] 0.727, EESSHYSTEKE [ADAR_Y587] 0.441, TRDTDYQMTKR [ADA_Y308_L304R] 0.525, TLDTDYQMTKR [ADA_Y308] 0.743

biological target: SHP2 C-SH2 domain wild-type; experiment: as above; details: peptide library: pTyr-Var

Enrichment score, inactive:
AMCVCYDGVEV [ADAMTSL2_Y594_R593C] 1.24, SSQAHYRLSAF [ADAMTS9_Y100] 0.838, GIVEDYRPPFC [ACVRL1_Y421_Y426C] 0.798, RPAPQYPHQVP [ADAM12_Y895] 0.484, HKANEYYPVVI [ADAMTS18_Y764_L769I] 0.746, CSHKFYGKQCC [ADAMTS16_Y1211] 1.31, AGIKAYQSCLQ [ADGRA2_Y377_T375K] 0.81, HKANEYFPVVL [ADAMTS18_Y764_YF] 0.797, EDDPEYMRLRN [ADD2_Y31] 0.437, NTPNTYLRVNV [ADD2_Y440] 1.09, GIVEDYRPPFF [ACVRL1_Y421_YF] 0.708, HKANEYFPVVI [ADAMTS18_Y764_L769I_YF] 0.855, EDNPEYMRLRN [ADD2_Y31_D28N] 0.512, HSLHDYKEALM [ADA2_Y337] 1.23, KANEYYPVVII [ADAMTS18_Y765_L769I] 0.929, STQAHYRLSAF [ADAMTS9_Y100_S96T] 0.672, EESSHYSTEKE [ADAR_Y587] 0.392, TRDTDYQMTKR [ADA_Y308_L304R] 0.608, TLDTDYQMTKR [ADA_Y308] 0.637

biological target: SHP2 N-SH2 domain L43F; experiment: as above; details: peptide library: pTyr-Var

Enrichment score, inactive:
AMCVCYDGVEV [ADAMTSL2_Y594_R593C] 0.942, SSQAHYRLSAF [ADAMTS9_Y100] 0.706, GIVEDYRPPFC [ACVRL1_Y421_Y426C] 0.86, RPAPQYPHQVP [ADAM12_Y895] 0.638, HKANEYYPVVI [ADAMTS18_Y764_L769I] 0.576, CSHKFYGKQCC [ADAMTS16_Y1211] 1.45, AGIKAYQSCLQ [ADGRA2_Y377_T375K] 0.907, HKANEYFPVVL [ADAMTS18_Y764_YF] 0.932, EDDPEYMRLRN [ADD2_Y31] 0.66, NTPNTYLRVNV [ADD2_Y440] 0.922, GIVEDYRPPFF [ACVRL1_Y421_YF] 1.02, HKANEYFPVVI [ADAMTS18_Y764_L769I_YF] 0.681, EDNPEYMRLRN [ADD2_Y31_D28N] 0.569, HSLHDYKEALM [ADA2_Y337] 1.32, KANEYYPVVII [ADAMTS18_Y765_L769I] 0.942, STQAHYRLSAF [ADAMTS9_Y100_S96T] 0.752, EESSHYSTEKE [ADAR_Y587] 0.424, TRDTDYQMTKR [ADA_Y308_L304R] 0.526, TLDTDYQMTKR [ADA_Y308] 0.596

biological target: SHP2 N-SH2 domain T42A; experiment: as above; details: peptide library: pTyr-Var

Enrichment score, inactive:
AMCVCYDGVEV [ADAMTSL2_Y594_R593C] 1.07, SSQAHYRLSAF [ADAMTS9_Y100] 0.687, GIVEDYRPPFC [ACVRL1_Y421_Y426C] 0.703, RPAPQYPHQVP [ADAM12_Y895] 0.593, HKANEYYPVVI [ADAMTS18_Y764_L769I] 0.589, CSHKFYGKQCC [ADAMTS16_Y1211] 1.23, AGIKAYQSCLQ [ADGRA2_Y377_T375K] 0.736, HKANEYFPVVL [ADAMTS18_Y764_YF] 0.882, EDDPEYMRLRN [ADD2_Y31] 0.356, NTPNTYLRVNV [ADD2_Y440] 2.08, GIVEDYRPPFF [ACVRL1_Y421_YF] 0.67, HKANEYFPVVI [ADAMTS18_Y764_L769I_YF] 0.84, EDNPEYMRLRN [ADD2_Y31_D28N] 0.512, HSLHDYKEALM [ADA2_Y337] 0.845, KANEYYPVVII [ADAMTS18_Y765_L769I] 0.685, STQAHYRLSAF [ADAMTS9_Y100_S96T] 0.642, EESSHYSTEKE [ADAR_Y587] 0.367, TRDTDYQMTKR [ADA_Y308_L304R] 0.592, TLDTDYQMTKR [ADA_Y308] 0.632

biological target: SHP2 N-SH2 domain T52S; experiment: as above; details: peptide library: pTyr-Var

Enrichment score, inactive:
AMCVCYDGVEV [ADAMTSL2_Y594_R593C] 0.87, SSQAHYRLSAF [ADAMTS9_Y100] 0.614, GIVEDYRPPFC [ACVRL1_Y421_Y426C] 0.742, RPAPQYPHQVP [ADAM12_Y895] 0.735, HKANEYYPVVI [ADAMTS18_Y764_L769I] 0.534, CSHKFYGKQCC [ADAMTS16_Y1211] 1.14, AGIKAYQSCLQ [ADGRA2_Y377_T375K] 0.796, HKANEYFPVVL [ADAMTS18_Y764_YF] 0.91, EDDPEYMRLRN [ADD2_Y31] 0.553, NTPNTYLRVNV [ADD2_Y440] 1.01, GIVEDYRPPFF [ACVRL1_Y421_YF] 1.06, HKANEYFPVVI [ADAMTS18_Y764_L769I_YF] 0.802, EDNPEYMRLRN [ADD2_Y31_D28N] 0.655, HSLHDYKEALM [ADA2_Y337] 0.834, KANEYYPVVII [ADAMTS18_Y765_L769I] 0.807, STQAHYRLSAF [ADAMTS9_Y100_S96T] 0.796, EESSHYSTEKE [ADAR_Y587] 0.486, TRDTDYQMTKR [ADA_Y308_L304R] 0.392, TLDTDYQMTKR [ADA_Y308] 0.707

biological target: SHP2 N-SH2 domain wild-type; experiment: as above; details: peptide library: pTyr-Var

Enrichment score, inactive:
AMCVCYDGVEV [ADAMTSL2_Y594_R593C] 1.32, SSQAHYRLSAF [ADAMTS9_Y100] 0.702, GIVEDYRPPFC [ACVRL1_Y421_Y426C] 0.731, RPAPQYPHQVP [ADAM12_Y895] 0.774, HKANEYYPVVI [ADAMTS18_Y764_L769I] 0.626, CSHKFYGKQCC [ADAMTS16_Y1211] 1.45, AGIKAYQSCLQ [ADGRA2_Y377_T375K] 0.73, HKANEYFPVVL [ADAMTS18_Y764_YF] 0.796, EDDPEYMRLRN [ADD2_Y31] 0.599, NTPNTYLRVNV [ADD2_Y440] 0.92, GIVEDYRPPFF [ACVRL1_Y421_YF] 0.937, HKANEYFPVVI [ADAMTS18_Y764_L769I_YF] 0.928, EDNPEYMRLRN [ADD2_Y31_D28N] 0.533, HSLHDYKEALM [ADA2_Y337] 0.928, KANEYYPVVII [ADAMTS18_Y765_L769I] 0.568, STQAHYRLSAF [ADAMTS9_Y100_S96T] 0.742, EESSHYSTEKE [ADAR_Y587] 0.372, TRDTDYQMTKR [ADA_Y308_L304R] 0.874, TLDTDYQMTKR [ADA_Y308] 0.729
